Assays:
Test in all cases: Tumor cell viability, CellTiter-Glo
Format in all cases: cell-based, human
MDA-MB-231 = MDA-MB-231 (BRCa), 24 hours
Experimental: (§1) Tumor cells were seeded at 10,000 cells/well in 96-well plates in the recommended media containing 10% FBS and treated with a TRAIL receptor agonist protein made up of two polypeptides having the amino acid sequence set forth in SEQ ID NO: 19 for 24 hours at 37° C. in a humidified, 5% CO2 atmosphere. Cell viability was subsequently assessed using CellTiter-Glo® reagent as described by the manufacturer's instructions (Promega; Madison, Wis.). IC50 values were determined by non-linear regression analysis of the concentration response data normalized to non-treated control cells.

NCI-H847 = NCI-H847 (NSCLC), 24 hours
Experimental: as §1

SKNO-1 = SKNO-1 (AML), 24 hours
Experimental: as §1

MCF7 = MCF7 (BrCa), 24 hours
Experimental: as §1

NCI-H2444 = NCI-H2444 (NSCLC), 24 hours
Experimental: as §1

NCI-H2110 = NCI-H2110 (NSCLC), 24 hours
Experimental: as §1

NCI-H2170 = NCI-H2170 (NSCLC), 24 hours
Experimental: as §1

NCI-H522 = NCI-H522 (NSCLC), 24 hours
Experimental: as §1

RC-K8 = RC-K8 (NHL), 24 hours
Experimental: as §1

NCI-H2347 = NCI-H2347 (NSCLC), 24 hours
Experimental: as §1

NCI-H1650-GFP = NCI-H1650-GFP (NSCLC), 24 hours
Experimental: as §1

HeyA8-GFP = HeyA8-GFP (Ovarian), 24 hours
Experimental: as §1

SU-DHL-4 = SU-DHL-4 (NHL), 24 hours
Experimental: as §1

OCI-Ly7 = OCI-Ly7 (NHL), 24 hours
Experimental: as §1

OCI-AML2 = OCI-AML2 (AML), 24 hours
Experimental: as §1

OCI-Ly2 = OCI-Ly2 (NHL), 24 hours
Experimental: as §1

HL-60 = HL-60 (AML), 24 hours
Experimental: as §1

HT-1080 = HT-1080 (Fibrosarcoma), 24 hours
Experimental: as §1

RL = RL (NHL), 24 hours
Experimental: as §1

SU-DHL-16 = SU-DHL-16 (NHL), 24 hours
Experimental: as §1

HEL = HEL (AML), 24 hours
Experimental: as §1

ULA = ULA (NHL), 24 hours
Experimental: as §1

SU-DHL-8 = SU-DHL-8 (NHL), 24 hours
Experimental: as §1

SET-2 = SET-2 (AML), 24 hours
Experimental: as §1

WSU-NHL = conditions: 24 hours
Experimental: as §1

Toledo = Toledo (NHL), 24 hours
Experimental: as §1

SU-DHL-2 = SU-DHL-2 (NHL), 24 hours
Experimental: as §1

BxPC3 = BxPC3 (Pancreatic), 24 hours
Experimental: as §1

THP-1 = THP-1 (AML), 24 hours
Experimental: as §1

Kasumi-1 = Kasumi-1 (AML), 24 hours
Experimental: as §1

MV4-11 = MV4-11 (AML), 24 hours
Experimental: as §1

KG-1 = KG-1 (AML), 24 hours
Experimental: as §1

NCI-H2122 = NCI-H2122 (NSCLC), 24 hours
Experimental: as §1

HCC4006 = HCC4006 (NSCLC), 24 hours
Experimental: as §1

HCC827 = HCC827 (NSCLC), 24 hours
Experimental: as §1

OCI-LY19 = OCI-LY19 (NHL), 24 hours
Experimental: as §1

NCI-H1792 = NCI-H1792 (NSCLC), 24 hours
Experimental: as §1

Capan-1 = Capan-1 (Pancreatic), 24 hours
Experimental: as §1

B1: SEQ ID NO: 19: made up of two polypeptides of SEQ ID NO: 19; three hinge cysteines, N297S aglycosylated CH2, glycosites at positions 168 and 337 (protein)
chain: QRVAAHITGTRGRSNTLSSPNSKNEKALGRKINSWESSRSGHSFLSNLHLRNGELVIHEKGFYYIYSQTYFRFQEEIKENTKNDKQMVQYIYKYTSYPDPILLMKSARNSCWSKDAEYGLYSIYQGGIFELKENDRIFVSVTNEHLIDMDHEASFFGAFLVGGSGSGNGSRVAAHITGTRGRSNTLSSPNSKNEKALGRKINSWESSRSGHSFLSNLHLRNGELVIHEKGFYYIYSQTYFRFQEEIKENTKNDKQMVQYIYKYTSYPDPILLMKSARNSCWSKDAEYGLYSIYQGGIFELKENDRIFVSVTNEHLIDMDHEASFFGAFLVGGSGSGNGSRVAAHITGTRGRSNTLSSPNSKNEKALGRKINSWESSRSGHSFLSNLHLRNGELVIHEKGFYYIYSQTYFRFQEEIKENTKNDKQMVQYIYKYTSYPDPILLMKSARNSCWSKDAEYGLYSIYQGGIFELKENDRIFVSVTNEHLIDMDHEASFFGAFLVGGPGSSSSSSSG[human IgG1 Fc with N297S (EU numbers) not written out]
modifications: homodimer
Which results are given for B1?
IC50 (MDA-MB-231): 0.235 µg/mL; IC50 (NCI-H847): 0.01453 µg/mL; IC50 (SKNO-1): 1 µg/mL; IC50 (MCF7): >3 µg/mL; IC50 (NCI-H2444): 0.02775 µg/mL; IC50 (NCI-H2110): 0.3142 µg/mL; IC50 (NCI-H2170): 0.03016 µg/mL; IC50 (NCI-H522): 0.25987 µg/mL; IC50 (RC-K8): 1 µg/mL; IC50 (NCI-H2347): 0.08106 µg/mL; IC50 (NCI-H1650-GFP): >0.003 µg/mL; IC50 (HeyA8-GFP): 0.141 µg/mL; IC50 (SU-DHL-4): 1 µg/mL; IC50 (OCI-Ly7): 0.06376 µg/mL; IC50 (OCI-AML2): 0.12432 µg/mL; IC50 (OCI-Ly2): 0.01898 µg/mL; IC50 (HL-60): 0.07662 µg/mL; IC50 (HT-1080): 0.377 µg/mL; IC50 (RL): 1 µg/mL; IC50 (SU-DHL-16): 0.54555 µg/mL; IC50 (HEL): 1 µg/mL; IC50 (ULA): 0.00844 µg/mL; IC50 (SU-DHL-8): 0.00136 µg/mL; IC50 (SET-2): 0.3848 µg/mL; IC50 (WSU-NHL): 0.0316 µg/mL; IC50 (Toledo): 1 µg/mL; IC50 (SU-DHL-2): 1 µg/mL; IC50 (BxPC3): 0.016 µg/mL; IC50 (THP-1): 1 µg/mL; IC50 (Kasumi-1): 1 µg/mL; IC50 (MV4-11): 0.31255 µg/mL; IC50 (KG-1): 1 µg/mL; IC50 (NCI-H2122): 0.48055 µg/mL; IC50 (HCC4006): 0.40724 µg/mL; IC50 (HCC827): 2.8245 µg/mL; IC50 (OCI-LY19): 0.02634 µg/mL; IC50 (NCI-H1792): 0.06109 µg/mL; IC50 (Capan-1): 0.393 µg/mL

Reference: US9908927B2, “Single-chain trail-receptor agonist proteins” (AbbVie Inc., priority 2014, dated 2018)
